# Measurements reported in the supplement of paper PMC3334620.
# Whole data set: some 33,000 sequences, median “E-score (-0.5 to 0.5)” near -0.053, cut for the highest 2% near 0.37. This is one part of the list.
# Molecular target: Hap1 (UniProt P0CE41)
# Experiment: PBM E-score (8-mer binding enrichment) (E-score (-0.5 to 0.5)); higher = stronger / more preferred TF binding; most listed sequences are background and not binding sites
# Details: protein concentration: 200 nM; construct: GST-DNA-binding domain
# Outline: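 Detection of bound protein used fluorescent anti-GST, with scans normalised by masliner. The proteins were GST-tagged yeast transcription factors applied at about 100-200 nM to universal all-10-mer Agilent arrays made double-stranded by primer extension. Each ungapped eight-base word, pooled with its reverse complement, was scored with an E-score from the Universal PBM Analysis Suite.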
# UniProt P0CE41, sequence (P0CE41 whole entry): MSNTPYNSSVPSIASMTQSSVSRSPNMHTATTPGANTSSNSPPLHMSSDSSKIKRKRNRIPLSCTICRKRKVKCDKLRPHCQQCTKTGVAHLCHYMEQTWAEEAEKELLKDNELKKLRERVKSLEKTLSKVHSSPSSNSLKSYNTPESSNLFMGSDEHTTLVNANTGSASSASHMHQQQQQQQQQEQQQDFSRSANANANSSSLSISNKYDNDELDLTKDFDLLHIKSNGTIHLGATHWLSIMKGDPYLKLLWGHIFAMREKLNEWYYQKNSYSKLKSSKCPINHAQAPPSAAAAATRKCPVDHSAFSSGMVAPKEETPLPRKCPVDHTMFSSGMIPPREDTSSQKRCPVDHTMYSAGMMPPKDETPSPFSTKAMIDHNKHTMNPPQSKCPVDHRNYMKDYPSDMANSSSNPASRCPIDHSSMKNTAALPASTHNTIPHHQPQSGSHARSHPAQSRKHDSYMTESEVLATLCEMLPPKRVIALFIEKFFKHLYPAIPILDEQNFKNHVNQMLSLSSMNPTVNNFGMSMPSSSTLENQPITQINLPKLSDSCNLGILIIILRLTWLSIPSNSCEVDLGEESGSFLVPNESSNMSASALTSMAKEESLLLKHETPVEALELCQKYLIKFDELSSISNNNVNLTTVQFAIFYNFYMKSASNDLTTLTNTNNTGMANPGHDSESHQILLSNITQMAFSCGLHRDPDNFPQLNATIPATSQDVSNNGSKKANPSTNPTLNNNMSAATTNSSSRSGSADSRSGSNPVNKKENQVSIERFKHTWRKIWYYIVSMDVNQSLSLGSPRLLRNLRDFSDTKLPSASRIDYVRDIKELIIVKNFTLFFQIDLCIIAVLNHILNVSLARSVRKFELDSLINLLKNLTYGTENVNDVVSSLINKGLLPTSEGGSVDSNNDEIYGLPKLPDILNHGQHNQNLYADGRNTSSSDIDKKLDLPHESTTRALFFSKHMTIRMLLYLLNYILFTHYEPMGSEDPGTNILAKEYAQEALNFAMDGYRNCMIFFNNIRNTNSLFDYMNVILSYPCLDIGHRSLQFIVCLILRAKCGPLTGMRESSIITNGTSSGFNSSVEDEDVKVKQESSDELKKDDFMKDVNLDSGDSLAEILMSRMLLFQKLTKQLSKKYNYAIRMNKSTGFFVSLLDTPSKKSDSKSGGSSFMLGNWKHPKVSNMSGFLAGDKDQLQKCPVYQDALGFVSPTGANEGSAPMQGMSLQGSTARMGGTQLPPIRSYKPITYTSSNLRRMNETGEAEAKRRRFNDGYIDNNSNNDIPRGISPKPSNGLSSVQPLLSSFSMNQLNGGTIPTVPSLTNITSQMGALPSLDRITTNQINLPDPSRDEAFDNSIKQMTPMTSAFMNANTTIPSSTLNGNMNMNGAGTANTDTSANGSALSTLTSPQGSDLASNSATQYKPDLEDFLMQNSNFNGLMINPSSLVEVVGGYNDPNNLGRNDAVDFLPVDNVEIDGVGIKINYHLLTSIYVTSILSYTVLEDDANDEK
row,Sequence,PBM E-score
1,TCGTCAAA,-0.0953
2,CTACGGTA,0.0838
3,ACGAACTA,-0.131
4,CTCTTCAA,-0.0246
5,AAACTGAC,0.0832
6,GATTTTCC,0.187
7,TCGGTCCA,0.278
8,ATGGCGAC,-0.0373
9,GTACTGTA,-0.119
10,ACTAATAG,0.0473
11,GTAGGCAC,-0.0328
12,CTACACAG,-0.32
13,AACGATTC,0.118
14,ACTTTCGG,0.303
15,CAAGTCGG,0.151
16,AATTTGGA,-0.278
17,CAAAGTAA,-0.00429
18,ACTTCAAA,-0.0283
19,ACCCTTCG,0.0839
20,ACCAATGC,0.129
21,CCATCCGG,0.254
22,CGATATAA,0.308
23,AGAATTGG,-0.0217
24,CCGGAAAA,0.432
25,GTGACTCA,-0.194

row,Sequence,PBM E-score
1,ACCACCTG,0.0143
2,GCAGTCAC,-0.231
3,CAAACCGC,0.184
4,ACGCGCAA,0.207
5,CGATGCCA,-0.206
6,CACTCATA,-0.299
7,AATTGTTG,-0.295
8,GATAAAGA,0.0742
9,ACAGATTG,-0.0719
10,AAGGGCTC,-0.311
11,AGCATTTG,0.0779
12,AAAGAAGG,-0.166
13,GCGAAAGC,0.0298
14,AGTACAGG,0.0392
15,ATAATGTC,0.205
16,CCGTAACA,0.151
17,CGGCTGGC,0.0597
18,ACTTCCAA,-0.157
19,ATGCACAT,-0.225
20,ATGTAAGA,-0.0436
21,ATTTGTCA,-0.162
22,ACACGACG,-0.203
23,AATCAAGT,-0.13
24,AACTATGT,-0.184
25,ACTAGAAT,-0.167

row,Sequence,PBM E-score
1,CCGGGGAG,0.314
2,ACCAGGGA,-0.302
3,CGAAAAAG,0.151
4,ACGCCCGA,0.371
5,ACTTCCCA,-0.221
6,AAAATTTA,-0.0757
7,GCATCAAC,-0.0399
8,CCTGTAAG,-0.333
9,CGACCGGA,0.412
10,GTGGAAGA,-0.0918
11,TATTGAGA,-0.006
12,CCTTTAAG,-0.0679
13,ACCGGCGG,0.418
14,CTAGGTGC,-0.121
15,CGGCCGAC,0.415
16,ACAGAGAA,-0.16
17,ACTGGCGG,0.0743
18,GTAAGTCA,-0.219
19,ACCGAGTG,0.133
20,TCATAAGA,-0.0459
21,CGCGGTAC,0.2
22,TACATCCA,-0.221
23,AGGCTGCG,-0.115
24,CCTGGGCC,-0.0121
25,TAATTTCA,-0.0367

row,Sequence,PBM E-score
1,CCAGTAAA,-0.09
2,AGTATTCA,-0.192
3,TCATCCCA,-0.291
4,GACTCTAA,-0.0481
5,CCGGATAG,0.316
6,ACCAAAAG,-0.165
7,AATGCAGC,-0.0955
8,GGGGCATA,0.0612
9,AGTCTTTA,-0.223
10,AGTATCAT,-0.0146
11,CTCGCGAC,0.0984
12,CCAAGACA,-0.0655
13,TACGGGCA,0.0438
14,ACGCACAT,-0.0567
15,ATAGATAG,-0.201
16,ATTCCTCA,-0.162
17,ACACGTCA,-0.156
18,CCGAAACA,0.288
19,CTTGACTA,-0.169
20,AGCTGGAA,-0.227
21,CCAAGCAG,-0.155
22,AGGCGTGG,-0.301
23,AACCAGTC,-0.071
24,AATCTGTG,-0.0888
25,AACTAGCG,0.15

row,Sequence,PBM E-score
1,CTCATGAC,0.0168
2,AGACGGCG,-0.015
3,CTAACCCC,0.235
4,GAGGGATA,-0.105
5,ATTACGTG,-0.191
6,CGCTTACG,-0.0315
7,GGATCTAA,0.293
8,ACACTCCA,-0.162
9,CTATCAGC,-0.119
10,CCATTGAA,-0.141
11,GGATCGTA,-0.0215
12,GTCGGCTA,0.163
13,ACAAAGCT,-0.0144
14,AATAGTAG,-0.0382
15,AAAGTACG,-0.0494
16,GTCATACA,-0.166
17,GTTTGATA,-0.0186
18,CGCAATTA,0.311
19,ATTATACC,0.258
20,TAGCCAAA,0.0352
21,ATATTGCA,-0.0459
22,TGACCCAA,-0.231
23,CTCTAGTC,-0.137
24,GCCTTCAA,-0.237
25,ATATCGCC,0.414

row,Sequence,PBM E-score
1,AGTGCATG,-0.216
2,CCTAGCGC,-0.0954
3,AACACACT,-0.292
4,CAACCGTC,0.0195
5,ACTTTCAC,-0.0742
6,GGCACGTA,-0.127
7,AGTCGGAG,0.174
8,GCAACGGC,0.152
9,CTTTCGAC,-0.0279
10,ATACGGGG,0.119
11,ATCAGAAC,-0.025
12,AAACTGGC,-0.195
13,AGCTGGCA,-0.219
14,AGGGGGTA,-0.2
15,CCTTGCGA,-0.0737
16,ACACATTA,-0.223
17,ACGCATAA,0.00131
18,GGCCCTCA,-0.0657
19,AGCCCTGG,-0.267
20,GCCACTAC,-0.042
21,AAGAGGTA,0.138
22,GACATCTC,0.0929
23,CGTTGTAG,0.114
24,AACGCTTA,-0.1
25,TATGCGAA,0.0244

row,Sequence,PBM E-score
1,CTTAGGCA,-0.22
2,ACCGTCAC,0.0721
3,CAAAGGAA,-0.129
4,AAGTCTAT,-0.185
5,CATTTGGG,-0.054
6,CGCTATTA,0.164
7,AGGTATCG,0.253
8,CTGGGGTC,-0.172
9,CACCAATA,-0.149
10,CGCACGTC,0.0527
11,GCAATTCA,-0.0129
12,GAGCCGTA,0.237
13,CCCCACTC,-0.186
14,AGCTGGCG,-0.089
15,ACCTGCTC,0.149
16,CATGTAAC,-0.0354
17,TAGAGTGA,-0.0303
18,AGACTAAT,-0.0594
19,ACCAGATA,-0.0999
20,AGCAATTA,0.121
21,AACTGAGG,-0.205
22,GGTGAACA,-0.211
